This note sets out measurements from PMC12136788.

The list shows a part of the results.

The labels stand for the following.
B1: chr8:121455507:121455508:-_ENSG00000172172_ENST00000306185|hu_hu|motif|central (ssRNA)
RNA: GGGAGUUCUACAGUCCGACGAUCUGAAGUCUUAUAGAUGCCAUAGCAGCAAGUUUGCCAGGUGGCUGCAUUUUCCCAUCGGAGAGAUACCAUAUUCUAGCAAAAGUGGCCCAUUGCUGGGGCGCCCUAGAGAAACUCGACAUACAACAGAGGAUUGAGCAUCA
B2: chr18:56900473:56900474:+_ENSMUSG00000024590_ENSMUST00000025486|mus_mus|motif|central (ssRNA)
RNA: GGGAGUUCUACAGUCCGACGAUCAACAUCUAUCUCUUCAAUGCACACGUUCCCCGUGGCUGAGGCAGAGUGGGAAAUGCGGACACUGCUGCUCGCCUCCGACUCCUCCACAUCAACUCUCUUCCGCUUUCCUCUGGUGGUGCGCAACAGAGGAUUGAGCAUCA
B3: chr11:75570464:75570465:+_ENSMUSG00000020849_ENSMUST00000067664|mus_hu|FALSE|FALSE (ssRNA)
RNA: GGGAGUUCUACAGUCCGACGAUCACGGUCAGGGGAAUUAAGAAUUUCGUAGUAGAAUACGGAAAAAUUGAGAGCAAGACCUAAGCGAAUAGGAUGCGUUGGUGGAAGUUCUGUCAUUGCAAUAUCACUAGCAGCUUUAUAAGCCAACAGAGGAUUGAGCAUCA
B4: 134016149_134016269_1505_CDS_ENSG00000151640_ENST00000338492|human|control|control (ssRNA)
RNA: GGGAGUUCUACAGUCCGACGAUCGCGGCCCGCCCCCGGGGUGACAAACAUCUUCCCGUCCUCCAGCGCCACUCGGCCCUGACUUAUGACCACGGCAGGCGCUCCCCGGCACUCCACUCCCUCGAAGAUGUUGUACUCCACGUUCAACAGAGGAUUGAGCAUCA
B5: chr1:137271502:137271503:-_ENSMUSG00000041889_ENSMUST00000041240|mus_hu|FALSE|FALSE (ssRNA)
RNA: GGGAGUUCUACAGUCCGACGAUCCAGUCCUCGCCGGCCAGCACCAGGGGAGCCCCCAGCACCAACAGAGCGAUUGCGGUGAGCGGCGCGGCCCGGCGGAGCCCCGCGGGUGGCAUGGUGGGGGCUGGGCGCGGCCGGGGUCGGCAACAGAGGAUUGAGCAUCA
B6: chr5:138651791:138651792:+_ENSG00000015479_ENST00000502499|hu_hu|FALSE|FALSE (ssRNA)
RNA: GGGAGUUCUACAGUCCGACGAUCCCCCCAAGAUGAAAUGAGGGAGGUGGAGGUCCCAGAAUUCCUGGUGCUGGAUUUGUAGACUGCUGCAACAUGAAUGGAUCACCCAUUGUGUGUCCUGUAUCAUUGUCAGGAUUCCAUUCUCAACAGAGGAUUGAGCAUCA
B7: chr1:33857880:33857881:-_ENSMUSG00000042197_ENSMUST00000044455|mus_mus|motif|central (ssRNA)
RNA: GGGAGUUCUACAGUCCGACGAUCUCUUGAAAACACCCAGUCACACUUUAUAUCUCAAGGAUUUCACAACGACGUCGGGACGGAUGGCAUCCCUCUUUAUUUCAAGAGAGAUCAGAUUGUCAGGCAUGUUUGAAAUUCUUGCUCCAACAGAGGAUUGAGCAUCA
B8: 131124709_131124829_5008_3pUTR_ENSMUSG00000048911_ENSMUST00000059372|mouse|control|control (ssRNA)
RNA: GGGAGUUCUACAGUCCGACGAUCACGAAGAAUUUGGAUACGUGCUGAGCUAACUGGAAUAAAAGCAUCUUGAAAUAAUUUGGGUUCUAAAGCUGAACUUGAAAACUGAUAGGUCCUGUUAAUCUUAUUUAAAAAACCUUUACCCAACAGAGGAUUGAGCAUCA
B9: chrX:69798090:69798091:-_ENSMUSG00000031343_ENSMUST00000055966|mus_mus|mus_mus_mus_hu_False|18_18 (ssRNA)
RNA: GGGAGUUCUACAGUCCGACGAUCAAGUCCCCGGGUUCUUGUCGUCUUGAUUCCCCUUGACCAGUGGUUCCAGGGAGAAUAUUAAUCAGGAAAAGAAUCCCAAGGCUGGUCAUGUAAAAGUGCCACAUUUGUGUGAUUAUCAUCCAACAGAGGAUUGAGCAUCA
B10: chr1:163115887:163115888:-_ENSG00000143248_ENST00000313961|hu_hu|FALSE|FALSE (ssRNA)
RNA: GGGAGUUCUACAGUCCGACGAUCUUAGAAAAAAUUCUAGCAAGACUUAUAAUCAUGAAAUACAGAAUUAAAAGUUUAAACCUACCAAAAGUCCUAUGGCCUAUUAUUUAGCUGUGAAUGAGACACGUCAGGAGUAUAAAUCUGCAACAGAGGAUUGAGCAUCA
B11: chr7:149068622:149068623:-_ENSMUSG00000025139_ENSMUST00000001950|mus_hu|mus_mus_mus_hu_False|8_88 (ssRNA)
RNA: GGGAGUUCUACAGUCCGACGAUCGUGAGGCCUCUGAGUGUGGCUUGUGCUCUGCAGUGGGUUAGAGUUGUUAAUAUCACGGAACAUACCAUCUAGAACGUUCCAGUCCCGCCUGACACCUUCAUUCGCAAGAGGGCAGAAAUCCAACAGAGGAUUGAGCAUCA
B12: chr14:24607556:24607557:+_ENSG00000092010_ENST00000206451|hu_mus|FALSE|FALSE (ssRNA)
RNA: GGGAGUUCUACAGUCCGACGAUCGUCACCCACGUGGGGCUGCUUGGCUGCUUUGGCCACGGCGUCACCCCUCUCGGAGAAGUACUUGGAGAUCUGCGUGUGGAAGCCUUCCAGCUUGGUGUGAAGGUUGGUCAUCAGCUCAAACAACAGAGGAUUGAGCAUCA
B13: chr16:16330038:16330039:-_ENSMUSG00000022789_ENSMUST00000023477|mus_mus|FALSE|FALSE (ssRNA)
RNA: GGGAGUUCUACAGUCCGACGAUCACUUUUAUCAUCCACCGGUUCACCAUAGCUAUUUAGAAGAGACUGAUACUGAGCAGCUAAGACAUUUAUUCUUGUUUUCAGCUCUGGUAAACAAUCUCUGAUAUGAUGCAUAAGUAACCUCAACAGAGGAUUGAGCAUCA
B14: chr16:23113652:23113653:+_ENSMUSG00000022884_ENSMUST00000115341|mus_mus|motif|central (ssRNA)
RNA: GGGAGUUCUACAGUCCGACGAUCCCACAAGUAUAUUAUUAAAUGAUAGAGAACAUCUAAUACAACCAUUUCUACAUAACGGGUAAAUGAAUUUCUAAGAAAAAAAGAUUUUACAGACCCCAUCUUUUAUACCCACCCCCAACACAACAGAGGAUUGAGCAUCA

In this assay the target is T1, UNK ZnF1-3 (human, UniProt Q9C0B0 31-174).
T1 sequence: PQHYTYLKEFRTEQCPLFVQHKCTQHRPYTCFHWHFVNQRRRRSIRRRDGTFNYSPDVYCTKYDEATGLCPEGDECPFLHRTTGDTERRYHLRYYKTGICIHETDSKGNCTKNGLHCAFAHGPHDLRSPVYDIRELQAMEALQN
Description: nsRBNS (natural sequence RNA bind-n-seq); RBNS binding buffer (assumed for nsRBNS): 25 mM Tris pH 7.5, 150 mM KCl, 3 mM MgCl2, 0.01% Triton X-100, 500 ug/ml BSA, 20 U/ml SUPERase-In, 4 C; UNK is unkempt and MSI1 is Musashi-1; names of the RNAs are library labels; protein concentration not given here; high values mean tight binding.
Take B1: the binding signal was 1.06 enrichment R. B2 returned a binding signal of 0.76 enrichment R. For B3 the value was 1.22 enrichment R; for B4, 0.744 enrichment R. For B5 the value was 1.06 enrichment R; for B6, 1.26 enrichment R; for B7, 0.674 enrichment R. The value for B8 was 1.67 enrichment R; that for B9 was 0.674 enrichment R.

The molecule B10 returned a binding signal of 0.875 enrichment R. The value for B11 was 0.847 enrichment R; that for B12 was 0.962 enrichment R.

In turn, B13 showed a binding signal of 0.772 enrichment R. The molecule B14 gave a binding signal of 2.7 enrichment R.
